From the RNAGym collection of RNA variant scans (doi:10.7554/elife.90254)
Read counts are not given, so values of variants with three or more changes are uncertain.

B1: LINE1-full (parent)
chain: UACGUAGGUGGUUUUCCCCUGAUAGUGCUAAGGGGGCCUGGAAGUUUGGACUGGGCAGAGCUCAACACAGCGUGGCAAAGUGGCUGUGGCUAGACUGCCUCUCUGGAUUCCUCGUCACUCAGCAGGGCAUCUCUGAGAGAAAUGCC

Variants of: B1
Assay: self-cleavage, relative activity (ratio to wild type); higher = more cleavage; in vitro, sequencing; the parent is a self-cleaving ribozyme
Variant UACGUAGGUGGUUUUCCCCUGAUAGUGCUUAGGGGGCCUGGAAGUUUGGACUGGGCAGAGCUCAACACAGCGUGGUAAAGUGGCUGUGGCUAGACUGCCUCUCUGGAUUCCUCGUCACUCAGCAGGGCAUCUCUGAGAGGAGUGCC has a self-cleavage of 1.44. With UACGUAGGUGGUUUUCCCCUGAUAGUGCUUAGGGGGCCUGGAAGUUUGAACUGGGCAGAGCUCAACACAGCGUGGCAAAGUGGCUGUGGCUAGACCGCCUCUCUGGAUUCCUCGUCACUCAGCAGGGCAUCUCUGAGUGAAAUGCC the self-cleavage was 0.15. Work on UACGUAGGUGGUUUUCCCCUGAUAGUGCUUAGGGGGCCUGGAAGUUUGGACUGGGCAGAACUCAACACAGCGUGGCAAAGUGGCUGUGGCUAGACUGCCUCUCUGGAUUCCUCGUCACACAGCGGGGCAUCUCUGAGAGAAAUGCC yielded a self-cleavage of 0.01. In the case of UACGUAGGUGGUUUUCCCCUGAUAGUGCUUAGGGGGCCUGGAAGUUUGGACUGGGCAGAGCUCAACACAGCGUGGCAAAAUGGCUGUGGCUAGACUGCCUCUCUGGAUUCCUCGCCACUCAGCAGGGCACCUCUGAGAGAAAUGCC, the self-cleavage is reported as 2.88. UACGUAGGUGGUUUUCCCCUGAUAGUGCUUAGGGGGCCUGGAAGUUUGGACUGGGCAGAGCUCAACACAGCGUGGCAAAGUGCCUGUGGCUAGACUGCCUCUCUGGAUUCCUCGUCACUCAGCAGGGCAUCCCUGAGAGAAAUGCC gave a self-cleavage of 1.33. For UACGUAGGUGGUUUUCCCCUGAUAGUGCUUAGGGGGCCCGGAAGUUUGGACUGGGCAGAGCUCGACACAGCGUGGCAAAGUGGCUGUGGCUAGACUGCCUCUCUGGAUUCCUCGUCACUCAGCAGGGCAUCUCUGGGAGAAAUGCC, the self-cleavage was 1.15. For UACGUAGGUGGUUUUCCCCUGAUAGUGCUUAGGGGGCCUGGAAGCUUGGACUGGGCAGAGCUCAACACAGCGUGGCAAAGUGGCUGUGGCUAGACUGCCUCUCUGGAUACCUCGUCACUCAGCAGGGCAUCUCUGAGAGAGACGCC, the self-cleavage was 1.78. Variant UACGUAGGUGGUUUUCCCCUGAUAGUGCUUAGGGGGCCUGGAAGUCUGGACUGGGCAGAGCUCAACACAGCGUGGCGAAGUGGCUGUGGCUAGACUGCCUCUCUGGAUUCCUCGUCACUCAGCAGGGCAUCUCUGAGAGAAGUGCC has a self-cleavage of 0.24. UACGUAGGUGGUUUUCCCCUGAUAGUGCUUAGGGGGCCUGGAAGUCUGGACUGGGCAGAGCUCAACACAGCGUGGCAAAGUGGCUGUGGCUAGACUGCCUCUCUGUAUUCCUCGUCACUCAGCAGGGCAUCUCUGAGAGAAAUGCC showed a self-cleavage of 0. For UACGUAGGUGGUUUUCCCCUGAUAGUGCUUAGGGGGCCUGGAAGUUCGGACUGGGCAGAGCUCAACACAGCGCGGCAAAGUGGCUGUGGCUAGACUGCCUCUCUGGAUUCCUCGUCACUCAGCAGGGCAUCUCUGAGGGAAGUGCC, the self-cleavage was 2.76. UACGUAGGUGGUUUUCCCCUGAUAGUGCUUAGGGGGCCUGGAAGUUUGGACCGGGCAGAGCUCAACACAGCGUGGCAAAGUGGCUGUGACUAGACUGCCUCUCUGGAUUCCUCGUCACUCAGCAGGGCAUCUCUGAGAGAGAUGCC showed a self-cleavage of 0.06. UACGUAGGUGGUUUUCCCCUGAUAGUGCUUAGGGGGCCUGGAAGUUUGGACCGGGCAGAGCUCAACACAGCGUGGCAAAGUGGCUGUGGCUAGACUGCCUCUCUGGAUUCCUCGUCACUCAGCAGGGCAUCUCUGAGAGAAAAGCC gave a self-cleavage of 1.41. With UACGUAGGUGGUUUUCCCCUGAUAGUGCUUAGGGGGCCUGGAAGUUUGGACUGGGCAGAGCUCAACACAGCGAGGCAAAGUGGCUGUGGCUAGACUGCCUCUCUGGAUUUCUCGUCACUCAGCAGGGCAUCUCUGAGAGAAAUGCC the self-cleavage was 1.57. With UACGUAGGUGGUUUUCCCCUGAUAGUGCUUAGGGGGCCUGGAAGUUUGGACUGGGCAGAGCUCAACACAGCGUGGCAAAGUGGCUGUGGCUAGACGGCCUCCCUGGAUUCCUCGUCACUCAGCAGGGCAUCUCUGAGAGAAAUGCC the self-cleavage was 0.31. For UACGUAGGUGGUUUUCCCCUGAUAGUGCUUAGGGGGCCUGGAAGUUUGGACUGGGCAGAGCUCAACACAGCGUGGCAAAGUGGCUGUGGCUAGACUGCCUCUCAGGAUUCCUCGUCACUCAGCAGGGCAUCUCUGAGCGAAAUGCC, the self-cleavage was 1.39. Variant UACGUAGGUGGUUUUCCCCUGAUAGUGCUACGGGGGCCUGGGAGUUUGGACUAGGCGGAGCUCAACACAGCGUGGCAAAGUGGCUGUGGCUAGACUGCCUCUCUGGGUUCCUCGUCACUCAGCAGGGCAUCUCUGAGAGAAAUGCC has a self-cleavage of 0.7. UACGUAGGUGGUUUUCCCCUGAUAGUGCUACGGGGGCCUGGAGGUUUGGACUGGGCAGAGCUCCACACAGCGUGGCAAAGUGGCUGUGGCUAGACUGCCCCUCUGGAUUCCUCGUCACUCAGCAGGGCAUCUCUGAGAGAAAUGCC showed a self-cleavage of 0. UACGUAGGUGGUUUUCCCCUGAUAGUGCUACGGGGGCCUGGAAGUUUGGACUGGGCUGAGCUCAACACAGCGUAGCAGAGUGGCUGUGGCUAGACUGCCUCUCUGGAUUCCUCGUCACUCAGCUGGGCAUCUCUGGGAGAAAUGCC gave a self-cleavage of 0.26. UACGUAGGUGGUUUUCCCCUGAUAGUGCUACGGGGGCCUGGAAGUUUGGACUGGGCAGAGCUCAGCACAGCGUGGCAGUGUGGCUGUGGCUAGACUGCCUCUCUGGAUUCCUCGUCACUCAGCAGGGUAUCUCUGAGAGAAAUGCC gave a self-cleavage of 0.11. With UACGUAGGUGGUUUUCCCCUGAUAGUGCUACGGGGGCCUGGAAGUUUGGACUGGGCAGAGCUCAUCACAGCGUGGCAAAGUGGCCGUGGCUAGACUGCCUCUCUGGAUUCCUCGUCACUCAGCAGGGCAUCUCUGAGAGAAAUGCC the self-cleavage was 0.
